According to US20250361299A1 (published 2025):

T1: Human CD3 protein (human, UniProt P07766 23-126)
T1 chain: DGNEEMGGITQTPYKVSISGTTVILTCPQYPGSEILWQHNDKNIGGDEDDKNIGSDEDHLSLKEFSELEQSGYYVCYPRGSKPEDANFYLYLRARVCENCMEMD


Assays:
Human CD3 protein [1] = molecular target: T1, Human CD3 protein; assay: ELISA; without uPA
Recombinant human EGFR [2] = molecular target: T2, Recombinant human EGFR (human, UniProt P00533 fragment); assay: ELISA; without uPA
Human CD3 protein [3] = molecular target: T1, Human CD3 protein; assay: ELISA; without uPA
Recombinant human EGFR [4] = molecular target: T2, Recombinant human EGFR; assay: ELISA; without uPA; remark: listed apart in the source
Human CD3 protein [5] = molecular target: T1, Human CD3 protein; assay: ELISA; with uPA
Recombinant human EGFR [6] = molecular target: T2, Recombinant human EGFR; assay: ELISA; with uPA

| EC50 (Human CD3 protein [1]) | EC50 (Recombinant human EGFR [2]) | EC50 (Human CD3 protein [3]) | EC50 (Recombinant human EGFR [4]) | Binder | other results |
| --- | --- | --- | --- | --- | --- |
| ~965 µg/mL | 23 µg/mL | – | – | 1.6 proBiTE (bispecific antibody) heavy: QDGNEEMGGGSQDGNEEMGGGGSGGGSGGGSGLSGRSDNHGGSSGGSEVQLVESGGGLVQPGGSLRLSCAASGFTFNTYAMNWVRQAPGKGLEWVARIRSKYNNYATYYADSVKGRFTISRDDSKNTLYLQMNSLRAEDTAVYYCARHGNFGSSYVSYFAYWGQGTTVTVSSASTKGPSVFPLAPSSKSTSGGTAALGCLVKDYFPEPVTVSWNSGALTSGVHTFPAVLQSSGLYSLSSVVTVPSSSLGTQTYICNVNHKPSNTKVDKKVEPKS[human IgG1 Fc with T366L Y407H (EU numbers) cut from this listing]GGGGSGGGGSGGGGSEVQLVETGGGVVQPGRSLRLSCAASGFTFSSYAMHWVRQAPGKGLEWVAVISYDGSNKYYADSVKGRFTISRDNSKNTLYLQMNSLRAEDTAVYYCARGYVARGDFDYWGQGTLVTVSS light: EIVVTQSPATLSVSPGERATLSCRSSTGAVTTSNYANWVQQKPGQAPRGLIGGANKRAPGVPARFSGSLSGDEATLTISSLQSEDFAVYYCALWYSNLWVFGQGTKLEIKRTVAAPSVFIFPPSDEQLKSGTASVVCLLNNFYPREAKVQWKVDNALQSGNSQESVTEQDSKDSTYSLSSTLTLSKADYEKHKVYACEVTHQGLSSPVTKSFNRGE[human IgG1 Fc with T366L Y407H (EU numbers) cut from this listing]GGGGSGGGGSGGGGSDVVMTQSPSTLSASVGDRVTITCRASQSMSRWLAWYQQKPGKGPKLLIYATSTLQSGVPSRFSGSGSGTEFTLTISSLQPEDFATYYCQQLDSFPFSFTFGPGTKVDLK | – |
| – | – | 53.5 µg/mL | 1.89 µg/mL | 1.6.1 proBiTE (bispecific antibody) heavy: QDGNEEMGGGSQDGNEEMGGIGGGSGGGGSGLSGRSDNHGGGGSEVQLVESGGGLVQPGGSLRLSCAASGFTFNTYAMNWVRQAPGKGLEWVARIRSKYNNYATYYADSVKGRFTISRDDSKNTLYLQMNSLRAEDTAVYYCARHGNFGSSYVSYFAYWGQGTTVTVSSASTKGPSVFPLAPSSKSTSGGTAALGCLVKDYFPEPVTVSWNSGALTSGVHTFPAVLQSSGLYSLSSVVTVPSSSLGTQTYICNVNHKPSNTKVDKKVEPKS[human IgG1 Fc with T366L Y407H (EU numbers) cut from this listing] light: EVQLVETGGGVVQPGRSLRLSCAASGFTFSSYAMHWVRQAPGKGLEWVAVISYDGSNKYYADSVKGRFTISRDNSKNTLYLQMNSLRAEDTAVYYCARGYVARGDFDYWGQGTLVTVSSGGGGSGGGGSGGGGSGGGGSDVVMTQSPSTLSASVGDRVTITCRASQSMSRWLAWYQQKPGKGPKLLIYATSTLQSGVPSRFSGSGSGTEFTLTISSLQPEDFATYYCQQLDSFPFSFTFGPGTKVDLKGGGGSGGGGSGGGGSGGGGSEIVVTQSPATLSVSPGERATLSCRSSTGAVTTSNYANWVQQKPGQAPRGLIGGANKRAPGVPARFSGSLSGDEATLTISSLQSEDFAVYYCALWYSNLWVFGQGTKLEIKRTVAAPSVFIFPPSDEQLKSGTASVVCLLNNFYPREAKVQWKVDNALQSGNSQESVTEQDSKDSTYSLSSTLTLSKADYEKHKVYACEVTHQGLSSPVTKSFNRGE[human IgG1 Fc with T366L Y407H (EU numbers) cut from this listing] | – |
| ~951 µg/mL | 7.14 µg/mL | – | – | 1.7 proBiTE (bispecific antibody) heavy: QDGNEEMGGGSQDGNEEMGGGGSGGGSGGGSGLSGRSDNHGGSSGGSEVQLVESGGGLVQPGGSLRLSCAASGFTFNTYAMNWVRQAPGKGLEWVARIRSKYNNYATYYADSVKGRFTISRDDSKNTLYLQMNSLRAEDTAVYYCARHGNFGSSYVSYFAYWGQGTTVTVSSASTKGPSVFPLAPSSKSTSGGTAALGCLVKDYFPEPVTVSWNSGALTSGVHTFPAVLQSSGLYSLSSVVTVPSSSLGTQTYICNVNHKPSNTKVDKKVEPKS[human IgG1 Fc with T366L Y407H (EU numbers) cut from this listing]GGGGSGGGGSGGGGSEVQLVETGGGVVQPGRSLRLSCAASGFTFSSYAMHWVRQAPGKGLEWVAVISYDGSNKYYADSVKGRFTISRDNSKNTLYLQMNSLRAEDTAVYYCARGYVARGDFDYWGQGTLVTVSSGGGGSGGGGSGGGGSDVVMTQSPSTLSASVGDRVTITCRASQSMSRWLAWYQQKPGKGPKLLIYATSTLQSGVPSRFSGSGSGTEFTLTISSLQPEDFATYYCQQLDSFPFSFTFGPGTKVDLK light: EIVVTQSPATLSVSPGERATLSCRSSTGAVTTSNYANWVQQKPGQAPRGLIGGANKRAPGVPARFSGSLSGDEATLTISSLQSEDFAVYYCALWYSNLWVFGQGTKLEIKRTVAAPSVFIFPPSDEQLKSGTASVVCLLNNFYPREAKVQWKVDNALQSGNSQESVTEQDSKDSTYSLSSTLTLSKADYEKHKVYACEVTHQGLSSPVTKSFNRGE[human IgG1 Fc with T366L Y407H (EU numbers) cut from this listing]GGGGSGGGGSGGGGSEVQLVETGGGVVQPGRSLRLSCAASGFTFSSYAMHWVRQAPGKGLEWVAVISYDGSNKYYADSVKGRFTISRDNSKNTLYLQMNSLRAEDTAVYYCARGYVARGDFDYWGQGTLVTVSSGGGGSGGGGSGGGGSDVVMTQSPSTLSASVGDRVTITCRASQSMSRWLAWYQQKPGKGPKLLIYATSTLQSGVPSRFSGSGSGTEFTLTISSLQPEDFATYYCQQLDSFPFSFTFGPGTKVDLK | – |
| – | – | – | – | 1.7 proBiTE after uPA digestion (bispecific antibody) heavy: SDNHGGSSGGSEVQLVESGGGLVQPGGSLRLSCAASGFTFNTYAMNWVRQAPGKGLEWVARIRSKYNNYATYYADSVKGRFTISRDDSKNTLYLQMNSLRAEDTAVYYCARHGNFGSSYVSYFAYWGQGTTVTVSSASTKGPSVFPLAPSSKSTSGGTAALGCLVKDYFPEPVTVSWNSGALTSGVHTFPAVLQSSGLYSLSSVVTVPSSSLGTQTYICNVNHKPSNTKVDKKVEPKS[human IgG1 Fc with T366L Y407H (EU numbers) cut from this listing]GGGGSGGGGSGGGGSEVQLVETGGGVVQPGRSLRLSCAASGFTFSSYAMHWVRQAPGKGLEWVAVISYDGSNKYYADSVKGRFTISRDNSKNTLYLQMNSLRAEDTAVYYCARGYVARGDFDYWGQGTLVTVSSGGGGSGGGGSGGGGSDVVMTQSPSTLSASVGDRVTITCRASQSMSRWLAWYQQKPGKGPKLLIYATSTLQSGVPSRFSGSGSGTEFTLTISSLQPEDFATYYCQQLDSFPFSFTFGPGTKVDLK light: EIVVTQSPATLSVSPGERATLSCRSSTGAVTTSNYANWVQQKPGQAPRGLIGGANKRAPGVPARFSGSLSGDEATLTISSLQSEDFAVYYCALWYSNLWVFGQGTKLEIKRTVAAPSVFIFPPSDEQLKSGTASVVCLLNNFYPREAKVQWKVDNALQSGNSQESVTEQDSKDSTYSLSSTLTLSKADYEKHKVYACEVTHQGLSSPVTKSFNRGE[human IgG1 Fc with T366L Y407H (EU numbers) cut from this listing]GGGGSGGGGSGGGGSEVQLVETGGGVVQPGRSLRLSCAASGFTFSSYAMHWVRQAPGKGLEWVAVISYDGSNKYYADSVKGRFTISRDNSKNTLYLQMNSLRAEDTAVYYCARGYVARGDFDYWGQGTLVTVSSGGGGSGGGGSGGGGSDVVMTQSPSTLSASVGDRVTITCRASQSMSRWLAWYQQKPGKGPKLLIYATSTLQSGVPSRFSGSGSGTEFTLTISSLQPEDFATYYCQQLDSFPFSFTFGPGTKVDLK | EC50 (Human CD3 protein [5]): 5.37 µg/mL; EC50 (Recombinant human EGFR [6]): 7.15 µg/mL |
| – | – | ~178 µg/mL | 19.4 µg/mL | 1.7.1 proBiTE (bispecific antibody) heavy: QDGNEEMGGGSQDGNEEMGGGGSGGGSGGGSGLSGRSDNHGGGGSEVQLVESGGGLVQPGGSLRLSCAASGFTFNTYAMNWVRQAPGKGLEWVARIRSKYNNYATYYADSVKGRFTISRDDSKNTLYLQMNSLRAEDTAVYYCARHGNFGSSYVSYFAYWGQGTTVTVSSASTKGPSVFPLAPSSKSTSGGTAALGCLVKDYFPEPVTVSWNSGALTSGVHTFPAVLQSSGLYSLSSVVTVPSSSLGTQTYICNVNHKPSNTKVDKKVEPKS[human IgG1 Fc with T366L Y407H (EU numbers) cut from this listing]GGGGSGGGGSGGGGSGGGGSEVQLVETGGGVVQPGRSLRLSCAASGFTFSSYAMHWVRQAPGKGLEWVAVISYDGSNKYYADSVKGRFTISRDNSKNTLYLQMNSLRAEDTAVYYCARGYVARGDFDYWGQGTLVTVSSGGGGSGGGGSGGGGSGGGGSDVVMTQSPSTLSASVGDRVTITCRASQSMSRWLAWYQQKPGKGPKLLIYATSTLQSGVPSRFSGSGSGTEFTLTISSLQPEDFATYYCQQLDSFPFSFTFGPGTKVDLK light: EIVVTQSPATLSVSPGERATLSCRSSTGAVTTSNYANWVQQKPGQAPRGLIGGANKRAPGVPARFSGSLSGDEATLTISSLQSEDFAVYYCALWYSNLWVFGQGTKLEIKRTVAAPSVFIFPPSDEQLKSGTASVVCLLNNFYPREAKVQWKVDNALQSGNSQESVTEQDSKDSTYSLSSTLTLSKADYEKHKVYACEVTHQGLSSPVTKSFNRGE[human IgG1 Fc with T366L Y407H (EU numbers) cut from this listing]GGGGSGGGGSGGGGSGGGGSEVQLVETGGGVVQPGRSLRLSCAASGFTFSSYAMHWVRQAPGKGLEWVAVISYDGSNKYYADSVKGRFTISRDNSKNTLYLQMNSLRAEDTAVYYCARGYVARGDFDYWGQGTLVTVSSGGGGSGGGGSGGGGSGGGGSDVVMTQSPSTLSASVGDRVTITCRASQSMSRWLAWYQQKPGKGPKLLIYATSTLQSGVPSRFSGSGSGTEFTLTISSLQPEDFATYYCQQLDSFPFSFTFGPGTKVDLK | – |
